Read counts are not given, so values of variants with three or more changes are uncertain.
B1: LINE1-mini (parent)
chain: GGCAGAGCUCAACACAGCGUGGCAAAGUGGCUGUGGCUAGACUGCC

Variants of: B1
Experiment: self-cleavage, relative activity (ratio to wild type); higher = more cleavage; in vitro, sequencing; the parent is a self-cleaving ribozyme
Variant AGCAGAGCUCAACACAGCGUGCCAAAGUGGCUCAGGGUAGUCUGCC has a self-cleavage of 0.02. For AGCAGAGCUCAACACAGCGUGCCAAAGUGGCUGUGCCUAGACUGCC, the self-cleavage was 0.1. With AGCAGAGCUCAACACAGCGUGGCAAAGUGACUGUGGCUAGACGGCC the self-cleavage was 0. In the case of AGCAGAGCUCAACACAGCGUGCCAAAGUGGCUGUGGCUCGACUGCC, the self-cleavage is reported as 0.06. In the case of AGCAGAGCGCAACACAGCGAGGCAAAGUGGCUUUCGCUAGAGUGCC, the self-cleavage is reported as 0.03. With AGCAGAGCCCAACACAGCGUGGCAAAGUGGCUGUGGCUGGACUGCC the self-cleavage was 0.04. For AGCAGAGCUCAACACAGCGUGCCAAAGUGGGUGUGGCUAGACUGCC, the self-cleavage was 0.04. For AGCAGAGCACAACACAGCGUGGCAAAGUGGCUGUGGCUAGCCUGCC, the self-cleavage was 0.12. With AGCAGAGCUCAACACAGCGUGGCAAAAUGGCUGUGGCUUGACUGCC the self-cleavage was 1.74. With AGCAGAGCUCAACACAGCGUGGCAAAGUGCCUGUGGCUAGAUUCCG the self-cleavage was 0.02. AGCAGAGCUCAACACAGCGUGGCAAACUGGCUGUGGCUAGAUUGCC showed a self-cleavage of 0.05. With AGCAGAGCUCAACACAGCGUCGCAAAGUGGCUUUGGCUAGACUGCC the self-cleavage was 0.13. AGCAGAGCGCGACACAGCGUGACAAAGUGGCUGUGGCUAGACUGCC showed a self-cleavage of 0.09. Work on AGCAGAGCGCAACACAGCGUGGCCGAAUGGCUGUGGCUAGACUGCC yielded a self-cleavage of 0.12. AGCAGAGCGCAACACAGCGUGGCACAGUGGCUGUGGAUAGACUGCC showed a self-cleavage of 0.18. For AGCAGAGCUCAACACAGCGGGGCAAAGUGGCUGUGGGUAGACUGAC, the self-cleavage was 0.02. In the case of AGCAGAGCACAACACUGCAUGGCAAAGUGGUUGUGGCUAGACUGCC, the self-cleavage is reported as 0.03. In the case of AGCAGAGCUCAACACAGCGUCGAAAAGUGGCUGUCGCUAGACUGCC, the self-cleavage is reported as 0.08. For AGCAGAGCUCAACACAGCGUGGCAAAAUGGCUGUGGAUCUACUGUC, the self-cleavage was 0.03. With AGCAGAGCUCAACACAGCGCGGGAAAGUGGCUGUGGCUAGACUGCC the self-cleavage was 2.06. For AGCAGAGCUCAACACAGCGUGGCAAACUGUGUGUGGCUAGACUGCC, the self-cleavage was 0.05. Work on AGCAGAGCUCAACACAGCGUAGCAAAGUAGCUGUGGCUAGAUUGCC yielded a self-cleavage of 0.5. Work on AGCAGAGCUCAACACAGCGAGGCAAUGUGGCUGUGGCUCAACUGCC yielded a self-cleavage of 0.07. In the case of AGCAGAGCUCAACACAGCGUGGCAAAGUGUCCGUCGCUAGAAUGCC, the self-cleavage is reported as 0.04. AGCAGAGCUCAACACAGCGUUGCAAAGUGGCUGUGGCAAGACUGCU showed a self-cleavage of 0.6. Work on AGCAGAGCUCAACACAGCGUGACAAAGUGGCUGUGGCUGGACUGAC yielded a self-cleavage of 0.15. AGCAGAGCUCAACACAGCUUGUCAAAGUGGCUGUGGCUAGACUGCC showed a self-cleavage of 0.18. Variant AGCAGAGCUCAACACAGCGUGGCAAAGUGGCUGUUCCUAGACUGCC has a self-cleavage of 0.12. Work on AGCAGAGCGCAACACAGCGUGGCGAAGUGGCUGUGGCAAGACUGCC yielded a self-cleavage of 0.51. With AGCAGAGCGCAACACAGCGUCGCAAAUUGGCUGUGGCUAUACUGCC the self-cleavage was 0.13. In the case of AGCAGAGCACAACACAGCGUGGCAAAGUGGCUGUGUCUAGACAGCC, the self-cleavage is reported as 0.04. In the case of AGCAGAGCGCAACACAGCGUGGCAAAGUGGCUGUGGCUAGACUACC, the self-cleavage is reported as 0.14. In the case of AGCAGAGCUCAACACAGCGUGGCAAAGUGUCUGUGGCUAGACUGCA, the self-cleavage is reported as 1.64. In the case of AGCAGAGCUCAACACAGCGAGGCAAAGUCGCUGUGGCUAGACUACC, the self-cleavage is reported as 0.14. In the case of AGCAGAGCUCAACACAGCGUUGAAAUGUGGCUGUGGCUAGACUGCC, the self-cleavage is reported as 1.67. For AGCAGAGCUCAACACAGCGUAGCAGAGUGGCGGUGGCUAGACUGCC, the self-cleavage was 0.11. With AGCAGAGCUCAACACAGCGUGGCAAAGUUGUUGUGGCUAGACUGCC the self-cleavage was 0.28. AGCAGAGCUCAACACAGCGUGGCAAAGUGGCUGUGACUAUACUGCC showed a self-cleavage of 0.14. For AGCAGAGCUCAACACAGCGUAGCGAAGCGGCGGUGGCUGGACUGGC, the self-cleavage was 0.04. In the case of AGCAGAGCUCAACACAGCGUGGCAAAGUGGCUGUGGCUACACUGAC, the self-cleavage is reported as 0.02. Work on AGCAGAGCGCAACACAGCGUGUCAAAGUGGCUGUGGCUAGACUGCC yielded a self-cleavage of 0.15. AGCAGAGCUCAACACAGCGUGCCAAAGUGGCUGUGGCUAUAAUACC showed a self-cleavage of 0.02. AGCAGAGCGCAACACAGCGUGGCAAAGUGGCUGCGGCUAGACUGCC showed a self-cleavage of 0.02. AGCAGAGCUCAACACAGCGUAGCAGAGUGGCUGUGGCUAGACUGCC gave a self-cleavage of 2.77. For AGCAGAGCACAACACAGCGUGGCAAAGUGGCUGUGGCUAGAAUGCC, the self-cleavage was 0.45. With AGCAGAGCUCAACACAGCGUGGCAAAGUCGCUGUGGCUAGACUGUA the self-cleavage was 2.98. AGCAGAGCUCAACACAGCUUGGCAAAGUGGAUGUGGUUAGACUGCC showed a self-cleavage of 0.09. AGCAGAGCCCAACACAGUGCGGCAAAGUGGCUGUGGCUAAACUGCC gave a self-cleavage of 0.04. In the case of AGCAGAGCACAACACAGCGUGGCAAAGUGGCUGUGGCUUGACUGCC, the self-cleavage is reported as 0.16. For AGCAGAGCUCAACACAGCGUGGCAAAGUAGCUGUGGCUAGAAUGCC, the self-cleavage was 0.13. AGCAGAGCUCAACACAGCGUGGCAAAGUAGCGGUUGCGAGACAGCA showed a self-cleavage of 0.01. For AGCAGAGCCCAACACAGCGUGGCAAAGUGGCUGUGGCUAGACUUCC, the self-cleavage was 0.03. With AGCAGAGCUCAACACAGCGUGGCAAAGUGGCUGUGGCUAUCCUGCA the self-cleavage was 0.05. Work on AGCAGAGCUCAACACAGCGUAGCAAAGUGGCUGUGGCUAGACAACC yielded a self-cleavage of 0.1. Variant AGCAGAGCUCAACACAGCGUAGCAAAGUUGCUGUGGCUAGACUGCC has a self-cleavage of 1.08. AGCAGAGCCCAACACAGCGUGGCAAAGUGGCUGUGGCUAGCCUGCC gave a self-cleavage of 0.22.

Reference: the RNAGym collection of RNA variant scans (doi:10.7554/elife.90254)
